Hit rate of the full screen: of about 16,000 compounds, about 120 (0.75%) were called active. Another 4% or so got no clear call; they are omitted. Calls come from the whole dose curve; as a rule, active = well fitted inhibition curve with a large enough effect; inconclusive = small, poorly fitted or top-dose-only effect; inactive = no such curve, though single readings can be large or run the other way. The list shows a part of the results. *1 amine or outer side, *2 acyl side, *3 side chain or, on linkers, in order; H or OH if unused. Where a SMILES comes first, the peptide text is derived from it. [ ]: non-standard residue; d: D form. X10 = C[C@H](O)[C@@H](C(=O)[*:2])N(C(C)(C)C)[*:1]; X9 = CC(C)(C)N([C@@H](CS)C(=O)[*:2])[*:1]

From PubChem BioAssay AID1645882 (National Center for Advancing Translational Sciences (NCATS), 2021) come the findings set out here.

Chain of UniProt O95398 (O95398 whole entry, looked up): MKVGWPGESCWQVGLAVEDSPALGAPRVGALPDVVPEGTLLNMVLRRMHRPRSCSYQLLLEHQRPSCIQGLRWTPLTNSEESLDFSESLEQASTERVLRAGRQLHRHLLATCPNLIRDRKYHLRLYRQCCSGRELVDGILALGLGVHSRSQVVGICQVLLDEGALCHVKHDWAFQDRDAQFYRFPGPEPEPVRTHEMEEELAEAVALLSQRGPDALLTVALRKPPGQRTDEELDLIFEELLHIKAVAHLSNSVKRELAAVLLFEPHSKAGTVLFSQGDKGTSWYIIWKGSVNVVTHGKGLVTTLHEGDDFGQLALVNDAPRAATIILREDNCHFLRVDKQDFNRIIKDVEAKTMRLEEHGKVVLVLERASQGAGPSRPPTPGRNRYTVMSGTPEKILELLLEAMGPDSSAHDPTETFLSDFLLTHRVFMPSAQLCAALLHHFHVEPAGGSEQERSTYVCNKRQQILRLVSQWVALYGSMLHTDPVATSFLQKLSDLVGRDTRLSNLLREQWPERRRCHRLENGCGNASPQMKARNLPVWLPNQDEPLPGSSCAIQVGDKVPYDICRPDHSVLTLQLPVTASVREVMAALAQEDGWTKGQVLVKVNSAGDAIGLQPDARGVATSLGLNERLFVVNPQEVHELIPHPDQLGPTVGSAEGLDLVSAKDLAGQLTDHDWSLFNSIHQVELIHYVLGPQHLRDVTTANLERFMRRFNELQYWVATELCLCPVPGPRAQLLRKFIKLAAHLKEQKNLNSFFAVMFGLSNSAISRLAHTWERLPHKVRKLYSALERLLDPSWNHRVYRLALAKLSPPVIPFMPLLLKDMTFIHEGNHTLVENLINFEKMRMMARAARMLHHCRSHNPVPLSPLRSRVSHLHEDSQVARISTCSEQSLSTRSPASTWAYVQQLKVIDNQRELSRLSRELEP

This test has as its target Rap guanine nucleotide exchange factor 3 (Homo sapiens) (UniProt O95398). Description: Validation qHTS for antagonist of cAMP-regulated guanine nucleotide exchange factor 3 (EPAC1). Note: nearly all actives have a fitted effect of over 75% in size. The following applies: EPAC1 Rap1B-BODIPY-GDP exchange, fluorescence; series mostly up to 150 µM; activity change, negative = inhibition: at the top concentration. An outline of the steps:
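EPAC1 (100 nM) mixed with 250 nM RAP1B-BODIPY-GDP and 50 uM GDP; compounds in concentration series, 5 min at room temperature. Fluorescence (ex 480/em 540 nm) read every 5 min for 30 min; normalized to ATA control and DMSO.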
As for `CC1=C[C@@H]2c3cccc4[nH]cc(c34)C[C@H]2N(C)C1`, the “activity change, negative = inhibition” value is inactive: 1.32%.
The same measure for `O=[N+]([O-])c1c(Cl)c(Cl)cc(Cl)c1Cl`: inactive: 19.2% [at 320 µM]; for `CCCCCCCCCCCCCCCC(=O)OC[C@H](COP(=O)([O-])OCC[N+](C)(C)C)OC(C)=O`: inactive: 24.1% [at 15.3 µM]; for `Cc1ccc(N=CN(C)C=Nc2ccc(C)cc2C)c(C)c1`: inactive: 13.5%.
Regarding `CC(C)C[C@H](NC(=O)[C@H](Cc1ccccc1)NC(=O)CNC(=O)[C@H](CS)N(C(=O)[C@@H](N)Cc1ccc(O)cc1)C(C)(C)C)C(=O)N([C@H](C(=O)O)[C@H](C)O)C(C)(C)C` (H-Y[X9]GFL[X10]-OH), the activity change, negative = inhibition is inactive: 21.4% [at 15.3 µM].
For the molecule `C=CCN1CC[C@]23c4c5ccc(O)c4O[C@H]2/C(=N/NC(=O)c2ccccc2)CC[C@@]3(O)[C@H]1C5`, the “activity change, negative = inhibition” value is inactive: 23.6% [at 75.8 µM].
Consider `CNC1(c2ccccc2Cl)CCCCC1=O` (centres undefined), for which the activity change, negative = inhibition result was “inactive”.
In the case of `CC(C)CC(N(C)C)C1(c2ccc(Cl)cc2)CCC1` (centres undefined), the “activity change, negative = inhibition” value is inactive: 8.13%.
The same measure for `N#CN`: inactive: 7.44%; for `CNC(C)C(O)c1ccc(O)cc1` (centres undefined): “inactive”; for `CNC(=O)O/N=C(/C)SC`: inactive: 20.8%.
Take `COc1ccc(CC2c3cc(OC)c(OC)cc3CCN2C)cc1OC` (centres undefined): the “activity change, negative = inhibition” value is inactive: 9.88%.
The same measure for `CC(C)(C)NC[C@H](O)c1ccc(O)cc1Cl`: inactive: 23.9%; for `COC(C)(C)CCCC(C)C/C=C/C(C)=C/C(=O)OC(C)C` (centres undefined): “inactive”; for `N#Cc1ccc(CN2CCC3(CC2)CCN(C(=O)Oc2ccccc2)CC3)cc1`: inactive: 3.01%.
The result for `CC(C)[C@H]1C(=O)N2CCC[C@H]2[C@]2(O)O[C@](NC(=O)[C@@H]3C[C@@H]4c5cccc6[nH]cc(c56)C[C@H]4N(C)C3)(C(C)C)C(=O)N12` reads inactive: 28.6%.
For `CCOC(=O)c1ccccc1C(=O)OCC`, the “activity change, negative = inhibition” value is inactive: 6.17%.
Consider `O=C(Nc1ccccc1)N1CCC2(CC1)CCN(C(=O)Oc1ccccc1)CC2`, for which the “activity change, negative = inhibition” value was inactive: 7.29%.
Regarding `NC(N)=NOCC[C@H](N)C(=O)O`, the activity change, negative = inhibition result was “inactive”.
Consider `O=C(O)c1ccccc1-c1c2cc(Br)c(=O)cc-2oc2[c]([Hg])c(O)c(Br)cc12`, for which the “activity change, negative = inhibition” value was inactive: -157%.
As for `N[C@@H](Cn1oc(=O)[nH]c1=O)C(=O)O`, the activity change, negative = inhibition result was “inactive”.
Turning to `CC[C@H]1C[C@H]2[C@@H]3CCC4=CC(=O)CC[C@@H]4[C@H]3CC[C@]2(C)[C@H]1O`, the “activity change, negative = inhibition” value is inactive: 24.8%.
As to `O=C1CC[C@]2(O)C3Cc4ccc(O)c5c4C2(CCN3CC2CC2)C1O5` (some centres undefined), the “activity change, negative = inhibition” value was inactive: 7.9%.
In the case of `Oc1cc[c]([Hg][Cl])cc1`, the activity change, negative = inhibition result is “inactive”.
Consider `c1ccc2c(c1)Sc1ccccc1N2CC1CN2CCC1CC2` (centres undefined), for which the “activity change, negative = inhibition” value is inactive: 28.4%.
In the case of `COC(=O)COc1ccc(Cl)cc1Cl`, the “activity change, negative = inhibition” value is inactive: 3.93%.
The result for `S=C(NC1CCCCC1)N1CCC(c2cnc[nH]2)CC1` reads “inactive”; that for `C[N+]1(CCC(C(N)=O)(c2ccccc2)c2ccccc2)CCCCC1`, inactive: -8.26%.
As to `CC(C)CN1CCC2(CC1)CCN(C(=O)Oc1ccccc1)CC2`, the “activity change, negative = inhibition” value was inactive: 17.5%.
The result for `O=P1(N(CCCl)CCCl)NC(OO)CCO1` (centres undefined) reads inactive: 5.54%; that for `COC(=O)/C=C\C(=O)N[C@@H]1CC[C@@]2(O)[C@H]3Cc4ccc(O)c5c4[C@@]2(CCN3CC2CC2)[C@@H]1O5`, inactive: 13.7%.
The result for `CC[C@H]1[C@@H]2C[C@H]3[C@@H]4N(C)c5ccccc5[C@]45C[C@@H](C2[C@H]5O)N3[C@@H]1O` (some centres undefined) reads inactive: -10% [at 75.8 µM]; that for `CN1CCC2(CC1)CCN(C(=O)c1ccco1)CC2`, inactive: 8.82%; that for `CCCCCCCCCCCCCC(=O)OC1C(C)[C@@]2(O)C(C=C(CO)C[C@]3(O)C(=O)C(C)=C[C@H]23)[C@@H]2C(C)(C)[C@]12OC(C)=O` (some centres undefined), inactive: -17.6%.
`ClCC1CO1` (centres undefined): the “activity change, negative = inhibition” value is inactive: 9.84%.
Turning to `C/C=C1/C[N@@+]2(C)CC[C@]34C(=C(C=O)[C@H]1C[C@H]32)Nc1ccccc14`, the “activity change, negative = inhibition” value is inactive: -4.2%.
Turning to `CCCC(C)(COC(N)=O)COC(N)=O`, the “activity change, negative = inhibition” value was inactive: 21.1%.
Consider `CN1CCCC2(CCN(C(=O)c3ccco3)CC2)C1`, for which the “activity change, negative = inhibition” value is inactive: 10.4%.
With `CC1=NCCc2c1[nH]c1cc(O)ccc21`, the activity change, negative = inhibition entry is “inactive”.
The result for `COC(=O)N1CCC2(CCN(CC(C)C)CC2)CC1` reads inactive: 4.19%; that for `Clc1cnc(Oc2ccc(Oc3ncc(Cl)cc3Cl)cc2)c(Cl)c1`, “inactive”; that for `[O]=[Cd]`, inactive: 16.4%.
The result for `COc1c2c(c(CC=C(C)C)c3oc(=O)c(-c4ccc(O)cc4)c(O)c13)OC(C)(C)C=C2` reads inactive: -16.9%; that for `CCCN(CCC)[C@@H]1CCc2ccc(O)cc2C1`, “inactive”.
The result for `CNCCc1ccc(O)c(O)c1` reads “inactive”.
For `OC[C@H]1O[C@@H](n2cnc3cc(Cl)c(Cl)cc32)[C@H](O)[C@H]1O`, the “activity change, negative = inhibition” value is inactive: 34%.
The result for `CN(C(=O)Cc1ccc(Cl)c(Cl)c1)[C@H](CN1CCCC1)c1ccccc1` reads “inactive”; that for `CNNC`, inactive: 11.5%; that for `CCN1C[C@]2(COC(=O)c3ccccc3N3C(=O)C[C@H](C)C3=O)CC[C@H](OC)[C@@]34[C@@H]5C[C@H]6[C@H](OC)[C@H]5[C@](O)(C[C@@H]6OC)[C@@](O)([C@@H](OC)[C@@H]23)[C@@H]14`, inactive: -5.23%.
